Results: the supplement of paper PMC7238544
Structures can show the parent of a compound that is named as a salt. ± gives the standard deviation of the averaged measurements. The list shows a part of the results.

test system: hAMSC donor 2; test: Hoechst total cell count ratio vs vehicle control; higher = more cells (less toxicity); settings: priming compound concentration 100 µM;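 note: compound added 30 min before Lipofectamine 3000 lipoplex delivery, triplicate-well means expressed against DMSO vehicle control wells of the same 96-well plate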

| SMILES | Hoechst total cell count ratio |
| --- | --- |
| c1ccc(CC2=NCCN2)cc1 [Priscoline hydrochloride] | 1.31 ± 0.094 |
| CCCCNC(=O)NS(=O)(=O)c1ccc(C)cc1 [Tolbutamide] | 1.68 ± 0.34 |
| Nc1ncn([C@@H]2O[C@H](CO)[C@@H](O)[C@H]2O)c(=O)n1 [5-Azacytidine] | 0.862 ± 0.061 |
| C[C@]12CCC(=O)C=C1CC[C@@H]1[C@@H]2C(=O)C[C@@]2(C)[C@H]1CC[C@]2(O)C(=O)CO [Cortisone] | 1.26 ± 0.51 |
| CN1CC(=O)N2[C@H](c3ccc4c(c3)OCO4)c3[nH]c4ccccc4c3C[C@@H]2C1=O [Tadalafil] | 1.32 ± 0.12 |

test system: hAMSC donor 1; test: transgenic luciferase activity (RLU/mg protein) fold change vs vehicle control (ratio); hAMSC are human adipose-derived mesenchymal stem cells given an EGFP-luciferase plasmid by lipofection; higher = more transgene expression; settings: priming compound concentration 100 µM;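 note: compounds in DMSO added 30 min before Lipofectamine 3000 transfection of pEGFP-Luc in 96-well plates, values are means of triplicate wells over DMSO vehicle wells on the same plate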

| SMILES | transgenic luciferase activity |
| --- | --- |
| CN1CCN(c2nc3cc(C(F)(F)F)ccc3n3cccc23)CC1 | 0.229 ± 0.044 |
| CN1C(C(=O)Nc2ccccn2)=C(O)c2ccccc2S1(=O)=O [Piroxicam] | 1.42 ± 0.56 |
| CC(=O)N1CCN(c2ccc(OCC3COC(Cn4ccnc4)(c4ccc(Cl)cc4Cl)O3)cc2)CC1 (configuration not stated) [Ketoconazole] | 2.44 ± 0.36 |
| CN(C)C(=O)C(CCN1CCC(O)(c2ccc(Cl)cc2)CC1)(c1ccccc1)c1ccccc1 [Loperamide hydrochloride] | 0.0374 ± 0.025 |
| CN(CCO)CC(O)Cn1cnc2c1c(=O)n(C)c(=O)n2C (configuration not stated) [Xanthinol nicotinate] | 0.371 ± 0.19 |
| CCC1=C(C)CN(C(=O)NCCc2ccc(S(=O)(=O)NC(=O)N[C@H]3CC[C@H](C)CC3)cc2)C1=O [Glimepiride] | 0.721 ± 0.47 |
| CN(C)c1ccc(O)c2c1C[C@H]1C[C@H]3[C@H](N(C)C)C(O)=C(C(N)=O)C(=O)[C@@]3(O)C(O)=C1C2=O [Minocycline hydrochloride] | 1.57 ± 0.42 |
